In PubChem BioAssay AID485341 (National Center for Advancing Translational Sciences (NCATS), 2010):
In all, about 330,000 compounds went through this assay and about 1,700 (0.52%) were called active. The inconclusive results got no clear call from the source; some entries with a clear call stand among them for comparison. Calls come from the whole dose curve; as a rule, active = well fitted inhibition curve with a large enough effect; inconclusive = small, poorly fitted or top-dose-only effect; inactive = no such curve, though single readings can be large or run the other way. A potency beside an inconclusive call is a rough fit, not a confirmed value.

These molecules were tested against Beta-lactamase (Escherichia coli (strain K12)) (UniProt P00811) (assay: qHTS Inhibitors of AmpC Beta-Lactamase (assay without detergent)). Settings: AmpC nitrocefin hydrolysis, absorbance 480 nm, 0.0001% Triton; activity change, negative = inhibition: at 57.1 µM (top of the series) unless noted.
Sequence of UniProt P00811 (P00811 whole entry, looked up): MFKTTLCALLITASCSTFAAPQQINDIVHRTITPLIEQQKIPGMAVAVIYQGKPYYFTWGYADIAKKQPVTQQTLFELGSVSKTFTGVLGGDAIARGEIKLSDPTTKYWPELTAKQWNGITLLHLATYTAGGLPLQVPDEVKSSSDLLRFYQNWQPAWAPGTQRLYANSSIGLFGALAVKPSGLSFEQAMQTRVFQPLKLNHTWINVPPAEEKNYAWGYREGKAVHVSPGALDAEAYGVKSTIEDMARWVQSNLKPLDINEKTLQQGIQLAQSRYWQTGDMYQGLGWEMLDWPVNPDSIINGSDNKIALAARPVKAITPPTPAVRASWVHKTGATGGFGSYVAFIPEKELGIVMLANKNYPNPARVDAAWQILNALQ
In short: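 20 mM phosphate pH 7.0 + 0.01% (detergent screen) or 0.0001% Triton X-100; 5.3 nM AmpC reagent; cpd preinc 15 min RT; nitrocefin (800 uM stock) to start; A480 q20 s × 4 min; Activity was normalised to no-enzyme and no-compound control wells.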
Note: nearly all actives have a fitted effect of over 20% in size.
Potency is the fitted concentration of half-maximal effect; tags give direction and shape of the fitted curve.
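Throughout, for activity change, negative = inhibition: plate controls were no compound for no effect and no enzyme for full effect.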

Row | SMILES | Potency | activity change, negative = inhibition
1 | O=C(Nc1cccc(Cl)c1)Nc1nnc(-c2ccncc2)s1 | active: 15.8 µM | –
2 | O=C(O)C1C2CC3C(OC(=O)C31)C2Cl (centres undefined) | – | inactive: -10.6%
3 | COC(=O)c1ccccc1NC(=O)N1CCN(C/C=C/c2ccccc2)CC1 | inconclusive: 2.51 µM [inhibitor, partial curve, poor fit] | –
4 | O=C(c1cc(Sc2cccc(Cl)c2)nc2ccccc12)N1CCN(c2ccccn2)CC1 | inconclusive: 0.891 µM [inhibitor, single point] | –
5 | CCCC(=O)NC(=S)NNC(=O)c1ccc([N+](=O)[O-])cc1 | – | inactive: -2.81%
6 | COc1ccc(CCNC(=O)c2cc3c(=O)n4ccccc4nc3n(Cc3ccco3)c2=N)cc1OC | – | inactive: 15.1%
7 | O=C(c1cn(Cc2ccccc2)c2ccccc12)C1CC1 | – | inactive: -15.1%
8 | Cc1cc(C)c(C(=O)CSc2nc3ccccc3c(=O)[nH]2)cc1C | active: 17.8 µM | –
9 | Cc1ccc(-c2csc(N(C)C(=O)c3c(C)nn(-c4ccccc4)c3Cl)n2)cc1 | inconclusive: 6.31 µM [inhibitor, single point] | –
10 | CN(C)C(=O)c1ccc(-c2nnc(NCc3ccccc3)c3ccccc23)cc1 | – | inactive: -18.9%
11 | Cc1cccc(NC(=O)/C(=C\c2ccc([N+](=O)[O-])o2)NC(=O)c2ccc(Cl)cc2)c1 | inconclusive: 17.8 µM [inhibitor, partial curve] | –
12 | CCn1c(SCc2ccccc2)nnc1C1CCCCC1 | – | inactive: 5.06%
13 | O=C(NCCCn1cccn1)c1cc(COc2ccc(F)cc2Cl)on1 | – | inactive: 24.9%
14 | COc1cccc(C(=O)Nc2c(C(N)=O)oc3ccccc23)c1 | active: 7.08 µM | –
15 | O=C1COc2ccc(C(=O)COC(=O)/C=C/c3ccc(Br)o3)cc2N1 | inconclusive: 31.6 µM [inhibitor, single point] | –
16 | COc1ccc(Cc2nnc(SC(C)C(=O)Nc3ccc(F)cc3Cl)o2)cc1 (centres undefined) | inconclusive: 35.5 µM [inhibitor, single point] | –
17 | CCO[C@H]1OC(C(=O)N2CCCCCCC2)=C[C@@H](c2csc3ccccc23)[C@@H]1CCCO | – | inactive: 180%
18 | C=CCc1cc(Cl)ccc1OCCNCCN1CCOCC1 | – | inactive: 37.8%
19 | CCOC(=O)N1CCC(NC(=O)CN2C(=O)CSc3ncccc32)CC1 | active: 28.2 µM | –
20 | Cc1ccccc1C(=O)NC(C)C(c1cccs1)N1CCOCC1 (centres undefined) | active: 2.82 µM | –
21 | c1ccc2oc(-c3ccn[nH]3)cc2c1 | – | inactive: -17.6%
22 | CCCCn1nc2cc(C(=O)NCc3ccccc3OC)ccc2c1OCC | inconclusive: 4.47 µM [inhibitor, single point] | –
23 | Cc1cccc(C)c1NC(=O)NNC(=O)c1cc(C(C)(C)C)nn1Cc1ccccc1 | – | inactive: -12.9%
24 | CC(C)CNS(=O)(=O)c1ccc(CCC(=O)N2CCN(c3ccc(F)cc3)CC2)cc1 | – | inactive: 67.8%
25 | Nc1nc(Cl)cc(Sc2ccc(F)cc2)n1 | inconclusive: 6.31 µM [inhibitor, single point] | –

Row | SMILES | Potency | activity change, negative = inhibition
26 | O=[N+]([O-])c1ccccc1/C=C/C=N/n1c(-c2cc(-c3ccccc3)n[nH]2)n[nH]c1=S | inconclusive: 4.47 µM [inhibitor, full curve, poor fit] | –
27 | COC(=O)c1ccccc1NC(=O)Cn1nc2n(C)c3ccccc3n2c(=O)c1=O | – | inactive: -10.7%
28 | CC1NC2(C(=O)N(Cc3ccccc3)c3ccccc32)C2C(=O)N(c3ccccc3)C(=O)C12 (centres undefined) | active: 11.2 µM | –
29 | S=C(Nc1ccccc1)Nc1ccc(Cl)cc1Cl | – | inactive: -9.4%
30 | COc1ccc(-c2c/c(=N\c3nc(-c4ccccc4)c(C)s3)c3ccccc3o2)cc1O | inconclusive: 2.82 µM [inhibitor, partial curve, poor fit] | –
31 | C=CCn1c(SCC(=O)NC2CCCC2)nc2scc(-c3ccco3)c2c1=O | active: 35.5 µM | –
32 | Cc1onc(-c2ccccc2)c1C(=O)NC(=S)NNC(=O)c1cc(-c2ccc(F)cc2)n[nH]1 | active: 2 µM | –
33 | CC(OC(=O)c1ccc2c(c1)OCO2)C(=O)NC1CCCCC1C (centres undefined) | – | inactive: -2.62%
34 | Cc1ccc(C)c(NC(=O)CSc2nnc(-c3ccccc3)o2)c1 | active: 39.8 µM | –
35 | COc1cc(OC)cc(-c2cc(N)n(S(=O)(=O)c3cccc4nsnc34)n2)c1 | inconclusive: 39.8 µM [inhibitor, single point] | –
36 | COc1nc(N)c(S(=O)(=O)c2ccccc2C)cc1C#N | active: 0.158 µM | –
37 | CCc1ccc(S(=O)(=O)/N=C2/C=C(Sc3ncn[nH]3)C(=O)c3ccccc32)cc1 | active: 20 µM | –
38 | COc1ccc(C2=NN3C(=O)c4c(ccc(OC)c4OC)C3C2)cc1 (centres undefined) | inconclusive: 6.31 µM [inhibitor, partial curve, poor fit] | –
39 | CCOc1c2ccc(C(=O)N[C@H](C)C3CCCCC3)cc2nn1CCOC | inconclusive: 6.31 µM [inhibitor, single point] | –
40 | Cc1ccc(NC(=O)CN(C)C(=O)COC(=O)c2ccc(NC(=O)CC#N)cc2)cc1 | inconclusive: 1 µM [inhibitor, full curve, poor fit] | –
41 | CN(C)S(=O)(=O)c1cccc(NC(=S)N/N=C/c2cc(Br)ccc2O)c1 | inconclusive: 2.24 µM [inhibitor, full curve, poor fit] | –
42 | CCOC(=O)C1=C(C)Nc2ccccc2N=C1NC(=O)C(c1ccccc1)c1ccccc1 | active: 28.2 µM | –
43 | Cc1ccc(S(=O)(=O)N2CCN(C(=O)C3CCN(C(=O)c4ccc(F)cc4)CC3)CC2)c(C)c1 | – | inactive: 160%
44 | O=C(O)c1ccccc1NS(=O)(=O)c1cccc(-n2sc3ccccc3c2=O)c1 | – | inactive: -56.3%
45 | Cc1cc2nc(C3CCN(CC4COc5ccccc5O4)CC3)[nH]c2cc1C (centres undefined) | inconclusive: 6.31 µM [inhibitor, partial curve, poor fit] | –
46 | O=C(Cc1ccc2c(c1)OCCO2)c1c(O)cc(O)cc1O | inconclusive: 14.1 µM [inhibitor, partial curve] | –
47 | O=[N+]([O-])c1cc(CN2CCN(c3cccc(C(F)(F)F)c3)CC2)c2cccnc2c1O | inconclusive: 0.251 µM [inhibitor, full curve, poor fit] | –
48 | COc1ccccc1S(=O)Cc1ccc(C(=O)NC2CCCC2)o1 (centres undefined) | – | inactive: -6.81%
49 | CC(=O)Nc1sc(C)c(C)c1C(=O)OCC(=O)Nc1cc(S(=O)(=O)N2CCCCC2)ccc1Cl | inconclusive: 39.8 µM [inhibitor, single point] | –
